The record followed here is ChEMBL document CHEMBL4888484, “Replenishing the malaria drug discovery pipeline: Screening and hit evaluation of the MMV Hit Generation Library 1 (HGL1) against asexual blood stage Plasmodium falciparum ,using a nano luciferase reporter read-out” (2022).

In all, about 150,000 compounds went through this assay and about 540 (0.36%) showed an effect of 50% or more. The list shows a part of the results.

The subject of this experiment is Plasmodium falciparum. Put plainly: Primary screen in NF54 nanoGlo assay, in single point, at 2uM, 72h; a lower Z score goes with more inhibition. The class given is functional, Erythrocyte. To be noted: timepoint 72 hour.
Broadly, the % Inhibition is the relative decrease from the control value, in per cent. For the compound `CCOC1CC(CO)(NCc2ccc(C)c(C)c2)C1(C)C` (stereo not drawn), the “% Inhibition” value came to 5% and the Z score is reported as -0.9.
For `CC1OCCC1NCC(=O)N1CCN(c2cccc(Cl)c2)CC1` (stereo not drawn), in that order: -8% and 0.99.
Taken in the same sequence, the figures for `Fc1ccccc1OCCNCc1ccc([C@@H]2CCCCO2)o1` were -4% and 0.69.
Taken in the same sequence, the figures for `COCCN1C[C@@H](Cc2nc(C)ccc2OC)CC1=O` were -4% and 0.57.
With `O=C(NC1CCN(c2ncnc3c2CCCC3)CC1)[C@@H]1Cc2ccccc2CO1`, the “% Inhibition” value turned out to be 7% and the Z score is recorded as -0.89.
For `C[C@@H](CCc1cccc(F)c1)N(C)CC#N`, in that order: -7% and 1.
Taken in the same sequence, the figures for `O=C(Nc1ccc(F)cn1)N[C@H]1CCCC12OCCO2` were -11% and 1.15.
For `COc1ccc(S(=O)(=O)N2CCCC[C@H]2c2nccs2)cc1Cl`, in that order: 2% and -0.37.
In the case of `Cc1cnc(C(NC(C)C2CC2)C2CC2)s1` (stereo not drawn), the “% Inhibition” value was -3% and the Z score is 0.4.
For `Cc1cncc(-c2nc(C)nn2CC(F)(F)F)c1`, in that order: -6% and 0.99.
Regarding `CC1CCCN(C(=O)OCC2CCCCN2)C1` (stereo not drawn), the “% Inhibition” value is listed as -2% and the Z score worked out at 0.2.
Taken in the same sequence, the figures for `COCCC(=O)Nc1cc(Br)c(F)cc1Cl` were -5% and 0.85.
Take `CCN1CCN(S(=O)(=O)c2cc(NC(=O)C3CCC3)ccc2Oc2c(C)c(C(=O)O)nn2-c2ccc(C)cc2C)CC1`: the “% Inhibition” value is on record as -4% and the Z score was 0.65.
For `CCN(C)C1(CNS(=O)(=O)c2ccc(C)s2)CCCC1`, in that order: -5% and 0.7.
For `C=C[C@@](C)(O)CN1CCN(Cc2nc(C(=O)N3CCN(c4ccccc4CC)CC3)co2)CC1`, in that order: 1% and -0.09.
Consider `CCN(CCOC)C(=O)N[C@@H](C)c1ccc(O)c(F)c1`, for which the “% Inhibition” value is recorded as -9% and the Z score amounted to 0.9.
As to `CCCCNC(=O)N1CCN(c2nc(CCCC)nc3onc(-c4ccccc4)c23)CC1`, the “% Inhibition” value is -1% and the Z score came out at 0.07.
Taken in the same sequence, the figures for `O=C(NC1CCCC1)c1cc2n(n1)[C@H](C(F)(F)F)C[C@H](c1ccco1)N2` were -3% and 0.36.
Taken in the same sequence, the figures for `CNC(=O)[C@H](Cc1c[nH]c2ccccc12)NC(=O)Nc1ccc(OCCOC)nc1` were 0% and -0.06.
For `COc1cc(=O)n(-c2ccccc2)cc1C(=O)N1CCN(S(=O)(=O)C2CC2)CC1`, in that order: 16% and -1.98.
Turning to `COCc1ccc(C(=O)N(Cc2ccncc2)Cc2ccc3c(c2)OCO3)o1`, the “% Inhibition” value is 5% and the Z score is -0.68.
For the compound `c1ccc2c(-n3nnc4ccccc43)ncnc2c1`, the “% Inhibition” value is 10% and the Z score is reported as -0.97.
In the case of `CCNc1ncc(CN(C)C[C@H]2CCOC2)cn1`, the “% Inhibition” value is -2% and the Z score is 0.27.
Turning to `CCc1nnc(C(=O)NC(CC)(CC)C(=O)OC)s1`, the “% Inhibition” value is -15% and the Z score was 2.1.
